# Molecular target: Recombinant heterodimeric HCV NS3/NS4A protease (strain 1a) (Hepatitis C virus genotype 1a, UniProt P27958)
# Experiment: Spectrophotometric assay for HCV protease inhibitory activity (chromogenic ester substrates)
# Format: biochemical
# Settings: Table 3, Esters; read-out: Ki* Range
row,Compound,Ki
1,CC(C)(C)[C@H](NC(=O)N[C@H](C(=O)OCc1ccccc1)C1CCC1)C(=O)N1C[C@H]2[C@@H]([C@H]1C(=O)NC(CC1CCC1)C(=O)C(N)=O)C2(C)C (stereo partly shown) [compound 4350],< 75 nM
2,CC(C)(C)[C@H](NC(=O)N[C@H](C(=O)N1C[C@H]2[C@@H]([C@H]1C(=O)NC(CC1CC1)C(=O)C(N)=O)C2(C)C)C(C)(C)C)C(=O)OCc1ccc(F)cc1 (stereo partly shown) [compound 4351],< 75 nM
3,CC(C)[C@H](NC(=O)N[C@H](C(=O)N1C[C@H]2[C@@H]([C@H]1C(=O)NC(CC1CC1)C(=O)C(N)=O)C2(C)C)C(C)(C)C)C(=O)OC(c1ccccc1)C1CC1 (stereo partly shown) [compound 4352],< 75 nM
4,CC(C)(C)[C@H](NC(=O)N[C@H](C(=O)OCc1ccccc1)C1(C(F)(F)F)CC1)C(=O)N1C[C@H]2[C@@H]([C@H]1C(=O)NC(CC1CCC1)C(=O)C(N)=O)C2(C)C (stereo partly shown) [compound 4353],< 75 nM
5,CC(C)[C@H](NC(=O)N[C@H](C(=O)N1C[C@H]2[C@@H]([C@H]1C(=O)NC(CC1CC1)C(=O)C(N)=O)C2(Cl)Cl)C(C)(C)C)C(=O)OC1Cc2ccccc2C1 (stereo partly shown) [compound 4354],< 75 nM
6,CC(C)(C)[C@H](NC(=O)N[C@H](C(=O)OCc1ccccc1)C1CCCC1)C(=O)N1C[C@H]2[C@@H]([C@H]1C(=O)NC(CC1CCC1)C(=O)C(N)=O)C2(C)C (stereo partly shown) [compound 4356],< 75 nM
7,CC(C)OC(=O)[C@@H](NC(=O)N[C@H](C(=O)N1C[C@H]2[C@@H]([C@H]1C(=O)NC(CC1CCC1)C(=O)C(N)=O)C2(Cl)Cl)C1CCCCC1)C(C)(C)C (stereo partly shown) [compound 4357],< 75 nM
8,CC(C)[C@H](NC(=O)N[C@H](C(=O)N1C[C@H]2[C@@H]([C@H]1C(=O)NC(CC1CC1)C(=O)C(N)=O)C2(C)C)C(C)(C)C)C(=O)OCC1CC1 (stereo partly shown) [compound 4358],< 75 nM
9,CC(OC(=O)[C@@H](NC(=O)N[C@H](C(=O)N1C[C@H]2[C@@H]([C@H]1C(=O)NC(CC1CC1)C(=O)C(N)=O)C2(C)C)C(C)(C)C)C(C)(C)C)C1CC1 (stereo partly shown) [compound 4359],< 75 nM
10,CC(C)(C)[C@H](NC(=O)N[C@H](C(=O)N1C[C@H]2[C@@H]([C@H]1C(=O)NC(CC1CCC1)C(=O)C(N)=O)C2(C)C)C(C)(C)C)C(=O)OC1CCC1 (stereo partly shown) [compound 4360],< 75 nM
11,CC(C)[C@H](NC(=O)N[C@H](C(=O)N1C[C@H]2[C@@H]([C@H]1C(=O)NC(CC1CC1(F)F)C(=O)C(N)=O)C2(C)C)C(C)(C)C)C(=O)OC(C)(C)C (stereo partly shown) [compound 4361],< 75 nM
12,C[C@H](OC(=O)[C@@H](NC(=O)N[C@H](C(=O)N1C[C@H]2[C@@H]([C@H]1C(=O)NC(CC1CCC1)C(=O)C(N)=O)C2(Cl)Cl)C(C)(C)C)C(C)(C)C)c1ccccc1 (stereo partly shown) [compound 4362],< 75 nM
13,CC(C)(C)[C@H](NC(=O)N[C@H](C(=O)OCc1ccccc1)C1(C(F)(F)F)CC1)C(=O)N1C[C@H]2[C@@H]([C@H]1C(=O)NC(CC1CC1)C(=O)C(N)=O)C2(C)C (stereo partly shown) [compound 4363],< 75 nM
14,CC(C)(C)OC(=O)[C@@H](NC(=O)N[C@H](C(=O)N1C[C@H]2[C@@H]([C@H]1C(=O)NC(CC1CC1)C(=O)C(N)=O)C2(C)C)C1Cc2ccccc2C1)C(C)(C)C (stereo partly shown) [compound 4364],< 75 nM
15,CC(C)(C)OC(=O)[C@@H](NC(=O)N[C@H](C(=O)N1C[C@H]2[C@@H]([C@H]1C(=O)NC(CC1CC1)C(=O)C(N)=O)C2(Cl)Cl)C1CCCCC1)C(C)(C)C (stereo partly shown) [compound 4365],< 75 nM
16,C=CCOC(=O)[C@@H](NC(=O)N[C@H](C(=O)N1C[C@H]2[C@@H]([C@H]1C(=O)NC(CC1CC1)C(=O)C(N)=O)C2(C)C)C(C)(C)C)C(C)C (stereo partly shown) [compound 4366],< 75 nM
17,C#CCOC(=O)[C@@H](NC(=O)N[C@H](C(=O)N1C[C@H]2[C@@H]([C@H]1C(=O)NC(CC1CC1)C(=O)C(N)=O)C2(C)C)C(C)(C)C)C(C)C (stereo partly shown) [compound 4367],< 75 nM
18,CC(C)(C)COC(=O)[C@@H](NC(=O)N[C@H](C(=O)N1C[C@H]2[C@@H]([C@H]1C(=O)NC(CC1CC1)C(=O)C(N)=O)C2(C)C)C(C)(C)C)C(C)(C)C (stereo partly shown) [compound 4368],< 75 nM
19,C[C@@H](OC(=O)[C@@H](NC(=O)N[C@H](C(=O)N1C[C@H]2[C@@H]([C@H]1C(=O)NC(CC1CC1)C(=O)C(N)=O)C2(C)C)C(C)(C)C)C(C)(C)C)c1ccccc1 (stereo partly shown) [compound 4369],< 75 nM
20,C=CCNC(=O)C(=O)C(CCC)NC(=O)[C@@H]1[C@@H]2[C@H](CN1C(=O)[C@@H](NC(=O)N[C@H](C(=O)OC(C)(C)C)C1CCCCC1)C(C)(C)C)C2(C)C (stereo partly shown) [compound 4370],< 75 nM
21,CC(C)[C@H](NC(=O)N[C@H](C(=O)N1C[C@H]2[C@@H]([C@H]1C(=O)NC(CC1CC1)C(=O)C(N)=O)C2(C)C)C(C)(C)C)C(=O)OCc1ccc(F)cc1 (stereo partly shown) [compound 4371],< 75 nM
22,CCC(CC)[C@H](NC(=O)N[C@H](C(=O)N1C[C@H]2[C@@H]([C@H]1C(=O)NC(CC1CC1)C(=O)C(N)=O)C2(C)C)C(C)(C)C)C(=O)OCC1CC1 (stereo partly shown) [compound 4372],< 75 nM
23,CC(C)(C)COC(=O)[C@H](NC(=O)N[C@H](C(=O)N1C[C@H]2[C@@H]([C@H]1C(=O)NC(CC1CCC1)C(=O)C(N)=O)C2(C)C)C(C)(C)C)C(C)(C)C (stereo partly shown) [compound 4373],< 75 nM

row,Compound,Ki
1,CC(C)(C)OC(=O)[C@@H](NC(=O)N[C@H](C(=O)N1C[C@H]2[C@@H]([C@H]1C(=O)NC(CC1CCC1)C(=O)C(N)=O)C2(C)C)C1Cc2ccccc2C1)C(C)(C)C (stereo partly shown) [compound 4374],< 75 nM
2,CC(C)OC(=O)[C@@H](NC(=O)N[C@H](C(=O)N1C[C@H]2[C@@H]([C@H]1C(=O)NC(CC1CCC1)C(=O)C(N)=O)C2(Cl)Cl)C(C)(C)C)C(C)(C)C (stereo partly shown) [compound 4375],< 75 nM
3,CC(C)(C)OC(=O)C(CC(F)(F)F)NC(=O)N[C@H](C(=O)N1C[C@H]2[C@@H]([C@H]1C(=O)NC(CC1CCC1)C(=O)C(N)=O)C2(C)C)C(C)(C)C (stereo partly shown) [compound 4376],< 75 nM
4,CC[C@H](NC(=O)N[C@H](C(=O)N1C[C@H]2[C@@H]([C@H]1C(=O)NC(CC1CC1)C(=O)C(N)=O)C2(C)C)C(C)(C)C)C(=O)OC(C)(C)C (stereo partly shown) [compound 4377],< 75 nM
5,CC(C)OC(=O)[C@@H](NC(=O)N[C@H](C(=O)N1C[C@H]2[C@@H]([C@H]1C(=O)N[C@@H](CC1CC1)C(=O)C(=O)NCCC(=O)OC(C)(C)C)C2(C)C)C(C)(C)C)C(C)C [compound 4378],< 75 nM
6,C#CCCC(NC(=O)[C@@H]1[C@@H]2[C@H](CN1C(=O)[C@@H](NC(=O)N[C@H](C(=O)OC(C)(C)C)C(C)(C)C)C(C)(C)C)C2(C)C)C(=O)C(=O)NCC=C (stereo partly shown) [compound 4379],< 75 nM
7,C=CCNC(=O)C(=O)C(CCC)NC(=O)[C@@H]1[C@@H]2[C@H](CN1C(=O)[C@@H](NC(=O)N[C@H](C(=O)OCC1CC1)C(C)C)C(C)(C)C)C2(C)C (stereo partly shown) [compound 4380],< 75 nM
8,C=CCNC(=O)C(=O)C(CCC)NC(=O)[C@@H]1[C@@H]2[C@H](CN1C(=O)[C@@H](NC(=O)N[C@H](C(=O)OC(C1CC1)C1CC1)C(C)(C)C)C(C)(C)C)C2(C)C (stereo partly shown) [compound 4381],< 75 nM
9,CC(C)(C)[C@H](NC(=O)N[C@H](C(=O)OCC1CC1)C1(C(F)(F)F)CC1)C(=O)N1C[C@H]2[C@@H]([C@H]1C(=O)NC(CC1CCC1)C(=O)C(N)=O)C2(C)C (stereo partly shown) [compound 4382],< 75 nM
10,CC(C)(C)[C@H](NC(=O)N[C@H](C(=O)N1C[C@H]2[C@@H]([C@H]1C(=O)NC(CC1CCC1)C(=O)C(N)=O)C2(C)C)C(C)(C)C)C(=O)OC1CCOC1 (stereo partly shown) [compound 4383],< 75 nM
11,CC(C)[C@H](NC(=O)N[C@H](C(=O)N1C[C@H]2[C@@H]([C@H]1C(=O)NC(CC1CCC1)C(=O)C(N)=O)C2(C)C)C(C)(C)C)C(=O)OC1CCCC1 (stereo partly shown) [compound 4384],< 75 nM
12,C[C@H](OC(=O)[C@@H](NC(=O)N[C@H](C(=O)N1C[C@H]2[C@@H]([C@H]1C(=O)NC(CC1CCC1)C(=O)C(N)=O)C2(C)C)C(C)(C)C)C(C)(C)C)c1ccccc1 (stereo partly shown) [compound 4385],< 75 nM
13,CC(C)[C@H](NC(=O)N[C@H](C(=O)N1C[C@H]2[C@@H]([C@H]1C(=O)NC(CC1CCC1)C(=O)C(N)=O)C2(C)C)C(C)(C)C)C(=O)O[C@H](C)c1ccccc1 (stereo partly shown) [compound 4386],< 75 nM
14,CC(C)[C@H](NC(=O)N[C@H](C(=O)N1C[C@H]2[C@@H]([C@H]1C(=O)NC(CC1CC1)C(=O)C(N)=O)C2(C)C)C(C)(C)C)C(=O)OCC1(C)CC1 (stereo partly shown) [compound 4387],< 75 nM
15,CC(C)(C)OC(=O)[C@@H](NC(=O)N[C@H](C(=O)N1C[C@H]2[C@@H]([C@H]1C(=O)NC(CC1CC1)C(=O)C(N)=O)C2(C)C)C(C)(C)C)C(C)(C)C (stereo partly shown) [compound 4388],< 75 nM
16,C=CCNC(=O)C(=O)C(CCC)NC(=O)[C@@H]1[C@@H]2[C@H](CN1C(=O)[C@@H](NC(=O)N[C@H](C(=O)OC(C)(C)C)C(C)C)C(C)(C)C)C2(C)C (stereo partly shown) [compound 4389],< 75 nM
17,CC(C)(C)[C@H](NC(=O)N[C@H](C(=O)N1C[C@H]2[C@@H]([C@H]1C(=O)NC(CC1CCC1)C(=O)C(N)=O)C2(Cl)Cl)C(C)(C)C)C(=O)OCc1ccccc1 (stereo partly shown) [compound 4390],< 75 nM
18,CC(C)(C)OC(=O)[C@@H](NC(=O)N[C@H](C(=O)N1C[C@H]2[C@@H]([C@H]1C(=O)NC(CC1CCC1)C(=O)C(N)=O)C2(Cl)Cl)C1Cc2ccccc2C1)C(C)(C)C (stereo partly shown) [compound 4391],< 75 nM
19,CC(C)[C@H](NC(=O)N[C@H](C(=O)N1C[C@H]2[C@@H]([C@H]1C(=O)NC(CC1CCC1)C(=O)C(N)=O)C2(Cl)Cl)C(C)(C)C)C(=O)OC1Cc2ccccc2C1 (stereo partly shown) [compound 4393],< 75 nM
20,CC(C)(C)OC(=O)[C@@H](NC(=O)N[C@H](C(=O)N1C[C@H]2[C@@H]([C@H]1C(=O)NC(CC1CCC1)C(=O)C(N)=O)C2(Cl)Cl)C1CCCCC1)C(C)(C)C (stereo partly shown) [compound 4394],< 75 nM
21,CC(C)(C)C[C@H](NC(=O)N[C@H](C(=O)N1C[C@H]2[C@@H]([C@H]1C(=O)NC(CC1CC1)C(=O)C(N)=O)C2(C)C)C(C)(C)C)C(=O)OCc1ccccc1 (stereo partly shown) [compound 4395],< 75 nM
22,CC(C)[C@H](NC(=O)N[C@H](C(=O)N1C[C@H]2[C@@H]([C@H]1C(=O)NC(CC1CC1)C(=O)C(N)=O)C2(C)C)C(C)C)C(=O)OC(C)(C)C (stereo partly shown) [compound 4396],< 75 nM
23,C=CCNC(=O)C(=O)C(CCC)NC(=O)[C@@H]1[C@@H]2[C@H](CN1C(=O)[C@@H](NC(=O)N[C@H](C(=O)OCc1ccco1)C(C)C)C(C)(C)C)C2(C)C (stereo partly shown) [compound 4397],< 75 nM
